Test results from PubChem BioAssay AID588579 (National Center for Advancing Translational Sciences (NCATS), 2011).
Out of some 400,000 compounds screened, about 2,200 (0.55%) were called active. Inconclusive means that the source gave no clear call. Such entries were picked first, then a sample of the others. Calls follow the shape of the dose curve; as a rule, active = well fitted inhibition curve with a large enough effect; inconclusive = small, poorly fitted or top-dose-only effect, or another doubt; inactive = no such curve, though single readings can be large or run the other way. Potencies beside an inconclusive call are fits to weak or partial responses and may not hold up. More than one record can exist for a structure, and the calls need not agree.

What follows are compounds tested against DNA polymerase kappa (Homo sapiens) (UniProt Q9UBT6) (assay: qHTS for Inhibitors of Polymerase Kappa). Conditions: purified Pol kappa, fluorescent DNA synthesis assay, 10 min; series mostly up to 107 µM; activity, negative = inhibition: at the top concentration.
Summary of the method: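 Fluorescent qHTS in 1536-well format: enzyme (10 nM) and compound sat 15 min at room temperature before 50 nM substrate (final) was added. Signal taken at 0 and 10 min; no-enzyme buffer wells were negative controls.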
% is scaled to controls: 0 for no effect and ±100 for the full control effect; potency is read from the fitted curve at half-maximal effect; tags tell the direction and shape of the fitted curve.

UniProt Q9UBT6, sequence (Q9UBT6 whole entry, looked up): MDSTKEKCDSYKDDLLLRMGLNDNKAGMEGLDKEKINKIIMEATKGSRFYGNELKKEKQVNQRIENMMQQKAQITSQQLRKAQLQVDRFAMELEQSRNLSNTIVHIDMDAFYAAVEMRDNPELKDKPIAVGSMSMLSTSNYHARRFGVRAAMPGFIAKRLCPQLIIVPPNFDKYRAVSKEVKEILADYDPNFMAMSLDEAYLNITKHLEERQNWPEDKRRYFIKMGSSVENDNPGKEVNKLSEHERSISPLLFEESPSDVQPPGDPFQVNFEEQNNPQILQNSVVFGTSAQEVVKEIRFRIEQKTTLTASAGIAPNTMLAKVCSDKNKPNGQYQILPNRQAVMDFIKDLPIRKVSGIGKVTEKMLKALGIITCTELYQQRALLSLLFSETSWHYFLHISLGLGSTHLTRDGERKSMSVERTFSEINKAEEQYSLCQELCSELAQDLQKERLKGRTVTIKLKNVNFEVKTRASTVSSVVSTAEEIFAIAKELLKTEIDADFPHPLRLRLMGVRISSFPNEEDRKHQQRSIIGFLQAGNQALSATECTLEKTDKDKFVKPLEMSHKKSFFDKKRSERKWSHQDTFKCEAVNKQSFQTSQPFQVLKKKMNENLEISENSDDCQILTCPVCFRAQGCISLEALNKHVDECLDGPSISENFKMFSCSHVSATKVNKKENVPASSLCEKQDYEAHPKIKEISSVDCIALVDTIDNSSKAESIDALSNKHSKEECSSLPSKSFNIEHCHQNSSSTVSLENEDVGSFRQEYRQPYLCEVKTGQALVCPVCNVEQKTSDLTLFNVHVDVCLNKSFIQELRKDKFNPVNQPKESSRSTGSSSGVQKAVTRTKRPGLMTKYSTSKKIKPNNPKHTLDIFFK

Structure (SMILES) | Potency | activity, negative = inhibition
c1cncc(CNc2ncncc2-c2ccoc2)c1 | inconclusive: 35.5 µM [inhibitor, partial curve, poor fit] | 
CSc1ccc(/C=N/NC(=O)c2sccc2C)cc1 |  | inactive: -5.23%
CSCC[C@H](NC(=O)[C@H](CCC(N)=O)NC(=O)[C@H](CCCCN)NC(=O)[C@H](CCCNC(=N)N)NC(=O)[C@H](Cc1ccc(O)cc1)NC(=O)[C@H](CCCNC(=N)N)NC(=O)[C@H](CO)NC(=O)[C@H](Cc1ccc(O)cc1)NC(=O)[C@H](CO)NC(=O)[C@H](CC(=O)O)NC(=O)[C@@H](NC(=O)[C@@H](N)Cc1ccccc1)[C@@H](C)O)C(=O)N[C@@H](C)C(=O)N[C@H](C(=O)N[C@@H](CCCCN)C(=O)N[C@@H](CCCCN)C(=O)N[C@@H](Cc1ccc(O)cc1)C(=O)N[C@@H](CC(C)C)C(=O)N[C@@H](C)C(=O)N[C@@H](C)C(=O)N[C@H](C(=O)N[C@@H](CC(C)C)C(=O)NCC(=O)N[C@@H](CCCCN)C(=O)N[C@@H](CCCNC(=N)N)C(=O)N[C@@H](Cc1ccc(O)cc1)C(=O)N[C@@H](CCCCN)C(=O)N[C@@H](CCC(N)=O)C(=O)N[C@@H](CCCNC(=N)N)C(=O)N[C@H](C(=O)N[C@@H](CCCCN)C(=O)N[C@@H](CC(N)=O)C(=O)N[C@@H](CCCCN)C(N)=O)C(C)C)C(C)C)C(C)C | inconclusive: 37.7 µM [inhibitor, single point] | 
CC(C)N(C)C1=CC(=O)C(N(C)C(C)C)=CC1=O | inconclusive: 89.1 µM [inhibitor, single point] | 
Cc1ccc(NC(=O)c2cnc(SCC(=O)N3CCOCC3)n(C)c2=O)cc1C |  | inactive: 0.054% [at 60.1 µM]
O=C(Nc1cc(Cl)cc(Cl)c1)c1coc(=O)c(Br)c1 | active: 79.4 µM | 
COc1ccc(NC(=O)CCCn2c(=O)c3sccc3n(Cc3ccccc3)c2=O)cc1 |  | inactive: -7.26%
Cc1ccc(NC(=O)CCC(=O)c2ccc(Cl)s2)nc1 | inconclusive: 89.1 µM [inhibitor, single point] | 
CCCSc1nc(NCc2ccco2)c2c3c(sc2n1)COC(C)(C)C3 | inconclusive: 89.1 µM [inhibitor, single point] | 
Cc1cc2nc3c(=O)[nH]c(=O)nc-3n(C)c2cc1C=O | inconclusive: 39.8 µM [inhibitor, single point] | 
CCOC(=O)CSc1nnc(-c2ccc(S(=O)(=O)NCc3cccs3)cc2)o1 | inconclusive: 100 µM [inhibitor, single point] | 
CCOCCCNC(=O)CN1C(=O)c2cccc3cccc1c23 | inconclusive: 89.1 µM [inhibitor, single point] | 
COc1ccccc1C(CNC(=O)C(CCSC)NC(=O)c1ccccc1Cl)N1CCCC1 (configuration not stated) |  | inactive: 1.73%
CCCCn1c(NC(C)=O)c(C#N)c2nc3ccccc3nc21 |  | inactive: -11.4%
O=C(OCC(=O)N1CCN(C(=O)c2ccco2)CC1)c1cc(-c2ccco2)nc2ccccc12 | active: 25.1 µM | 
c1ccc2c(-n3ccnc3)nc(-c3ccoc3)nc2c1 | inconclusive: 44.7 µM [inhibitor, single point] | 
O=C1c2ccccc2C(=O)c2c(/C=C/N3CCCCC3)ccnc21 |  | inactive: -5.08%
Cc1ccc(C)n1-c1nnc(N2CCCC(C(=O)NCc3ccccc3)C2)s1 (configuration not stated) |  | inactive: -9.54%
COC(=O)CSc1nnc(NC(=O)/C=C\c2ccc3c(c2)OCO3)s1 | inconclusive: 89.1 µM [inhibitor, single point] | 
Cc1ccc(NC(=O)c2ccc(Br)cc2)c(C(=O)c2ccccc2)c1 |  | inactive: -3.43%
Cc1cc(=O)oc2cc(O)cc(O)c12 | inconclusive: 100 µM [inhibitor, partial curve, poor fit] | 

Structure (SMILES) | Potency | activity, negative = inhibition
COc1ccccc1-n1c(SCC(=O)Nc2ccc(C)cc2)nc(O)cc1=O | inactive | 
O=C(O)c1ccccc1-c1c2ccc(=O)cc-2oc2cc(O)ccc12 | active: 26.7 µM | 
Cc1ccccc1-n1nc2c(c1NC(=O)c1ccc(Br)o1)CSC2 | inconclusive: 89.1 µM [inhibitor, single point] | 
COc1ccc(-c2noc(-c3ccc(NC(C)c4ccccc4)c([N+](=O)[O-])c3)n2)cc1OC (configuration not stated) |  | inactive: -9.6%
CC(=O)NCCCN(Cc1ccc(Cl)c(Cl)c1)c1ccc(Br)cn1 |  | inactive: -8.58%
CC(C)=CC[C@@H](O)C1=CC(=O)c2c(O)ccc(O)c2C1=O | active: 0.891 µM | 
CN(C(=O)Nc1ccccc1)C1CCCc2ccccc21 (configuration not stated) |  | inactive: 0%
O=C(Cn1ccc(=O)[nH]c1=O)Nc1ccc(O)c([N+](=O)[O-])c1 | inconclusive: 100 µM [inhibitor, single point] | 
Cn1cnnc1SCC(=O)c1cc2ccccc2oc1=O | inconclusive: 39.8 µM [inhibitor, partial curve, poor fit] | 
CC1=C(C(=O)O)N2C(=O)C(NC(=O)C(N)c3ccc(O)cc3)C2SC1 (configuration not stated) |  | inactive: 0.942% [at 60.1 µM]
CCCCCC#CCC#CCC#CCC#CCCCC(=O)O | active: 10 µM | 
CCOc1cc(/C=N/Nc2nnc(C)n2N)ccc1O |  | inactive: -17.7%
CC[n+]1c(/C=C/C=C/N(C(C)=O)c2ccccc2)sc2cc(OC)ccc21 | active: 35.5 µM | 
COc1ccc(CCNc2oc(-c3ccc(C)cc3)nc2C#N)cc1OC | inconclusive: 100 µM [inhibitor, single point] | 
COc1ccc(Br)cc1/C=C(\C(=O)O)c1ccc(S(=O)(=O)N2CCCC2)s1 | inconclusive: 100 µM [inhibitor, single point] | 
CC(C)C(=O)Nc1cc2c3c(c1)CCC(=O)N3CCC2 | inconclusive: 50.1 µM [inhibitor, partial curve, poor fit] | 
CCOc1ccc(NC(=O)CSC2=Nc3ccccc3C3=NC(CC(=O)NCc4ccccc4OC)C(=O)N23)cc1 (configuration not stated) |  | inactive: 0.428% [at 60.1 µM]
COCCn1c(=O)c(-c2ccc(OC)cc2)nc2cnc(Nc3cccc(OC)c3)nc21 |  | inactive: 1.64% [at 60.1 µM]
CN(C)C(=O)CSc1nnc(-c2ccc(S(=O)(=O)N3CCCC3)cc2)n1C | inconclusive: 89.1 µM [inhibitor, single point] | 
Cc1cccc(N2CCN(S(=O)(=O)c3ccc4c(c3)C(C)(C)C(=O)N4C)CC2)c1C | inconclusive: 28.2 µM [inhibitor, full curve, poor fit] | 
CC1=C(/C=C/C(C)=C/C=C/C(C)=C/C(=O)O)C(C)(C)CCC1 | inconclusive: 31.6 µM [inhibitor, partial curve, poor fit] | 

Structure (SMILES) | Potency | activity, negative = inhibition
Cc1onc(-c2ccccc2)c1C(=O)Nc1sc2c(c1C(N)=O)CCC2 | inconclusive: 89.1 µM [inhibitor, partial curve, poor fit] | 
CC(C)=CCC/C(C)=C/C=C/C(C)=C/C=C/C(C)=C/C=C/C=C(C)/C=C/C=C(C)/C=C/C=C(\C)CCC=C(C)C | inconclusive: 23.8 µM [inhibitor, partial curve, poor fit] | 
CCNc1ncc2nc(-c3cccs3)c(=O)n(CCC#N)c2n1 | inconclusive: 11.2 µM [inhibitor, partial curve, poor fit] | 
O=C(O)c1cnn2c(C(F)(F)F)cc(-c3ccco3)nc12 | inconclusive: 39.8 µM [inhibitor, partial curve] | 
CCc1nn(C(CC)C(=O)NCC(C)c2ccccc2)c(=O)c2cc3occc3n12 (configuration not stated) |  | inactive: 0.645%
CNC(=O)c1ccc2nc(-c3ccco3)c(-c3ccco3)nc2c1 | active: 8.91 µM | 
O=C(/C=C/c1ccc([N+](=O)[O-])cc1)Oc1ccc(/C=N/NC(=O)c2ccncc2)cc1 | active: 22.4 µM | 
O=C(CN(c1ccc(Cl)c(C(F)(F)F)c1)S(=O)(=O)c1ccccc1)Nc1cccnc1 | inconclusive: 89.1 µM [inhibitor, partial curve, poor fit] | 
CC(=O)[C@@H]1[C@H]2[C@H](C(=O)[C@H]3OC[C@@H]2O3)[C@H]2C=Cc3ccccc3N21 | inconclusive: 12.6 µM [inhibitor, partial curve] | 
O=C1NN(c2ccccc2)C(=O)/C1=C/c1ccc(Sc2cccc3ccccc23)o1 | inconclusive: 79.4 µM [inhibitor, single point] | 
NS(=O)(=O)c1ccc(NC(=O)c2cccc(N3C(=O)c4ccccc4C3=O)c2)cc1 | inconclusive: 50.1 µM [inhibitor, partial curve, poor fit] | 
O=C(O)c1ccc(-c2ccc(/C=c3/sc4nc5ccccc5n4c3=O)o2)cc1Cl | active: 10 µM | 
O=c1ccc2c(-c3ccccc3)c3ccc(O)cc3oc-2c1 | inconclusive: 28.2 µM [inhibitor, partial curve, poor fit] | 
Cc1ccc(NC(=O)C2CCN(c3nc(-c4ccc(C(C)C)cc4)no3)CC2)c(Cl)c1 |  | inactive: -9.27% [at 60.1 µM]
COc1ccc(CCNc2ncnc3c2[nH]c2cc(OC)c(OC)cc23)cc1OC | inconclusive: 56.2 µM [inhibitor, partial curve] | 
COc1ccc(C(=O)Oc2c(Sc3ccc(C)cc3)c(C)nn2C(C)(C)C)cc1OC | inconclusive: 89.1 µM [inhibitor, single point] | 
CC(=O)OCC1OC(Oc2cc(OC(C)=O)c3c(=O)cc(-c4ccc(OC(C)=O)c(OC(C)=O)c4)oc3c2)C(OC(C)=O)C(OC(C)=O)C1OC(C)=O (configuration not stated) | inconclusive: 10 µM [inhibitor, partial curve] | 
O=C(COC(=O)CSc1ccc(F)cc1)NCc1ccco1 | inconclusive: 79.4 µM [inhibitor, partial curve, poor fit] | 
Fc1ccc(-c2nnc(Cc3nnc(-c4ccc(F)cc4)o3)o2)cc1 |  | inactive: -15.7%
CCn1c2ccccc2c2cc(NC(=O)c3ccc(=O)oc3)ccc21 | inconclusive: 89.1 µM [inhibitor, partial curve, poor fit] | 
